We go through 172 sequences from article PMC10668032.

The list shows a part of the results. At the low end of the ranking the order means little.

The target in the test is SIX1-Q177R homeodomain (UniProt Q15475). The test can be described thus: universal protein binding microarray. As to conditions: Universal all-10-mer PBM (8x60K, AMADID 030236), 300 nM GST-tagged protein, Alexa Fluor 488 anti-GST; buffer, salt, pH and temperature not stated; high values mean tight binding; most listed sequences are background and not binding sites; double strand, one strand shown.
Turning to ACCCATAA, the binding signal was determined as 0.0912 E-score.
With AGGTCCTG, the binding signal is -0.129 E-score.
Consider GTTGCATA, for which the binding signal worked out at 0.132 E-score.
With CAAATGCG the figure was -0.0443 E-score.
Regarding GCAGCAAA, the binding signal was -0.294 E-score.
Take ACCCTTAC: the binding signal came out at 0.158 E-score.
For ACAAGGCA, the binding signal was -0.149 E-score.
The value for CATGCATC was -0.212 E-score; that for CTGGCTTC was -0.115 E-score; that for AACCACGT was 0.0198 E-score.
On to AGGTTGCC, for which the binding signal is -0.267 E-score.
With AAATCGAA the figure was -0.277 E-score; with CAGTGTAA, 0.42 E-score; with ACCTATCA, 0.0581 E-score.
ACTAAAAC: the binding signal was determined as 0.168 E-score.
With ACTATTCC the figure was -0.0422 E-score; with ATATAATG, -0.0599 E-score; with ACGTGAAC, -0.15 E-score.
GCAATCTA: the binding signal is -0.199 E-score.
The value for CACCATCG was 0.13 E-score; that for AGGAGACC was 0.0681 E-score; that for ATACGAAA was 0.0297 E-score.
As for AACCCCGA, the binding signal came to 0.232 E-score.
The value for CCGCGTCG was 0.0929 E-score; that for GCCGGTCA was -0.156 E-score.
With ACAGTAGA the figure was -0.113 E-score; with CTAACTGA, -0.108 E-score.
The value for AACATCCA was 0.0307 E-score.
For the sequence CAACGCGC, the binding signal is -0.122 E-score.
With GTCTACAA the figure was -0.229 E-score.
With GATATCGC the figure was -0.0885 E-score; with CTGCTAGA, -0.176 E-score.
AGCAACTC: the binding signal is -0.0167 E-score.
With GACTATCA the figure was -0.145 E-score; with CGATGGAG, 0.107 E-score; with GGTGGTGA, -0.017 E-score.
In the case of GAGCCGGC, the binding signal was -0.025 E-score.
Turning to AACCGCAT, the binding signal was -0.223 E-score.
With AAAGCCCG the figure was -0.198 E-score; with ACACAGAA, 0.0982 E-score.
Take CTGCGGTC: the binding signal is -0.152 E-score.
With GAGTCCCC the figure was 0.0416 E-score.
Take AGGTACTA: the binding signal is 0.197 E-score.
With ATTGGATG the figure was -0.0987 E-score.
The value for GTATGTGA was -0.0199 E-score; that for AGGTAATC was -0.202 E-score.
The value for CAGTGCGA was -0.214 E-score; that for GATTTGCA was -0.00948 E-score; that for TAGTAAGA was -0.217 E-score.
Regarding CCATGGCC, the binding signal is -0.143 E-score.
Take ACCTAGCC: the binding signal was -0.118 E-score.
The value for TACGTCTA was -0.263 E-score; that for CGAATCTA was -0.207 E-score.
With AGCGCTTG the figure was -0.165 E-score; with ACACCCCG, 0.466 E-score; with ACAGTACA, 0.203 E-score.
With ACCTCCGC the figure was 0.0929 E-score.
Regarding AAACAGGT, the binding signal amounted to 0.00705 E-score.
Take ATAGACGC: the binding signal was -0.00113 E-score.
Regarding GGCGTCCA, the binding signal came out at 0.0166 E-score.
With AATTATAG, the binding signal is -0.0975 E-score.
With TCTTCCCA, the binding signal was -0.233 E-score.
With AGGCTTCC the figure was -0.217 E-score; with AGTTGAGC, -0.111 E-score.
The value for ATTAAGGA was 0.0168 E-score; that for CTGTTTCA was -0.259 E-score.
For CCGCCCTC, the binding signal was -0.173 E-score.
The value for ACCTCAAA was 0.0908 E-score; that for AAGCAGTC was -0.0446 E-score.
The value for GTCACGCA was -0.0101 E-score.
With AATCCTAA the figure was -0.243 E-score.
Regarding CCAGCTAA, the binding signal was -0.0622 E-score.
For AGCGAAAA, the binding signal is -0.0679 E-score.
ATGCGAAG: the binding signal is -0.186 E-score.
AGGTTTTC: the binding signal was -0.176 E-score.
In the case of TGTATTAA, the binding signal came to 0.137 E-score.
For the sequence ATCTGATG, the binding signal is -0.171 E-score.
With AGTACTAG the figure was -0.0972 E-score; with CTGTTATA, 0.101 E-score; with AAGGCCCG, -0.183 E-score.
On to AAGGTACC, for which the binding signal was -0.088 E-score.
Regarding AACTCTCC, the binding signal is 0.05 E-score.
Consider CCCCTAAC, for which the binding signal amounted to 0.119 E-score.
With CGCCAATA the figure was -0.165 E-score.
With ATTGGTCA the figure was -0.108 E-score; with AAGTATAA, -0.125 E-score.
With ATGGGTGC, the binding signal worked out at 0.154 E-score.
Consider ATGTGTAG, for which the binding signal turned out to be 0.183 E-score.
On to AAAGTAGC, for which the binding signal is -0.295 E-score.
Regarding CCAGTGTA, the binding signal was 0.43 E-score.
The value for CCCCTCGA was 0.23 E-score.
The value for GCAATTTA was 0.0881 E-score; that for GTATTCAA was -0.224 E-score; that for CTGCGGCA was -0.216 E-score.
The value for ATTTAGAG was -0.207 E-score; that for CTGGAGGA was 0.0622 E-score.
With CTTTCTGA, the binding signal was -0.134 E-score.
The value for GGAATGAC was -0.0375 E-score.
Consider ACGGTTAA, for which the binding signal is -0.118 E-score.
With GGCGCCAC the figure was -0.264 E-score; with AGATGTTA, 0.0532 E-score.
The value for CGGGAATC was -0.0647 E-score.
The value for AGGGGCCC was -0.178 E-score; that for CGCTCTCC was -0.0921 E-score; that for ACGGCTTC was -0.134 E-score.
As for ATCATCGG, the binding signal is 0.103 E-score.
With GCCTTTTA the figure was -0.0871 E-score.
Regarding GCCTAATA, the binding signal is -0.0811 E-score.
For CATCGACG, the binding signal was -0.117 E-score.
With ATTCAGCA, the binding signal is -0.18 E-score.
Consider CGTCACTC, for which the binding signal was -0.0479 E-score.
The value for AACGCTAT was -0.0745 E-score; that for AGATTGGG was -0.106 E-score.
With CTGTTCCA the figure was -0.145 E-score; with CGCATCAC, -0.0719 E-score; with CTTACGGC, -0.158 E-score.
On to AGAGCACT, for which the binding signal is 0.119 E-score.
The value for CGCCATAG was 0.0554 E-score.
In the case of AGGACAAG, the binding signal is -0.108 E-score.
In the case of GCGACACA, the binding signal is 0.262 E-score.
Consider AGACAGAG, for which the binding signal is -0.0243 E-score.
With AGGGAACT the figure was -0.0202 E-score; with GATTAGAC, -0.183 E-score.
With GCTCGCCA the figure was -0.0614 E-score.
The value for AAAAGCCG was -0.161 E-score.
For the sequence GTTGAATA, the binding signal is -0.251 E-score.
On to ACATAGTG, for which the binding signal was found to be 0.19 E-score.
The value for AGACCAAC was -0.0576 E-score; that for AGAACTCG was -0.119 E-score; that for GCCGAAAA was -0.169 E-score.
With CGTCCGCC the figure was 0.0484 E-score; with AGTCGTCC, 0.0144 E-score.
In the case of CCGGATAG, the binding signal was -0.0776 E-score.
The value for CGAGCCAC was 0.00089 E-score; that for TCATCGAA was -0.104 E-score.
In the case of AAATCTCG, the binding signal is -0.392 E-score.
With GCTGCGCC the figure was -0.163 E-score; with AGTAGGTG, 0.279 E-score.
Regarding CGGAGGTA, the binding signal was -0.0437 E-score.
For the sequence CCGCCGAG, the binding signal is 0.0251 E-score.
Take AGGGGAAC: the binding signal is -0.117 E-score.
With CGAGGCGC the figure was -0.0431 E-score; with CTTCTTGC, -0.0263 E-score.
With CGGAGATA, the binding signal is 0.034 E-score.
GGCAAGAA: the binding signal was -0.00789 E-score.
The value for GTCGCTTA was -0.0343 E-score.
For GGCCTCAA, the binding signal was -0.144 E-score.
The value for AGGCGTGC was 0.00865 E-score; that for ACCTATCG was 0.0908 E-score.
With GTGCCATA the figure was 0.0428 E-score; with AATGCTCC, -0.305 E-score; with GTACCCCA, 0.247 E-score.
On to CGCTCCCA, for which the binding signal is -0.235 E-score.
With CTACAATC the figure was 0.0458 E-score; with AACCCGTC, -0.0703 E-score.
With AACTCGAG the figure was 0.0251 E-score; with GAGTAAGC, 0.00498 E-score.
With TACGCGAA the figure was -0.0633 E-score; with AGGACGCC, 0.0898 E-score.
Turning to GAGTGCGA, the binding signal was -0.0521 E-score.
ACAACAAA: the binding signal is -0.102 E-score.
The value for GACTCCAA was 0.139 E-score.
Turning to ACTCGTTC, the binding signal was 0.0393 E-score.
With CGGTCGAA the figure was -0.107 E-score; with CATGCCCA, -0.33 E-score.
Take ACCTGCAA: the binding signal was -0.128 E-score.
As for GTGGCAGA, the binding signal was -0.16 E-score.
In the case of CAAGGCAC, the binding signal is -0.192 E-score.
In the case of GCTACAGA, the binding signal is -0.176 E-score.
With GCGATTAA the figure was -0.0681 E-score.
As to AACCTTAC, the binding signal turned out to be 0.0365 E-score.
With ACCCGGGC the figure was 0.199 E-score.
